Data published in ChEMBL document CHEMBL4888484, “Replenishing the malaria drug discovery pipeline: Screening and hit evaluation of the MMV Hit Generation Library 1 (HGL1) against asexual blood stage Plasmodium falciparum ,using a nano luciferase reporter read-out” (2022).
Out of some 150,000 compounds screened, about 540 (0.36%) showed an effect of 50% or more. The list shows a part of the results. *1 amine or outer side, *2 acyl side, *3 side chain or, on linkers, in order; H or OH if unused. Where a SMILES comes first, the peptide text is derived from it. Bridges are numbered along the chain shown (N, C = ends). [ ]: non-standard residue; d: D form. The star is where a group is joined. N(2-Aminoethyl)Gly = O=C(CN(CCN[*:3])[*:1])[*:2]; Benzoyl(3-CF3) = O=C(c1cccc(C(F)(F)F)c1)*; NMeA = CN[C@@H](C)C(=O)O

Each molecule was assayed on Plasmodium falciparum (assay: Primary screen in NF54 nanoGlo assay, in single point, at 2uM, 72h; a lower Z score goes with more inhibition). Conditions: timepoint 72 hour.
Type: functional, Erythrocyte

SMILES	% Inhibition	Z score
CCc1nc(CN(C)Cc2ncnn2C)no1	0%	0.02
CC(C)Cn1nccc1NCC1=CCCOC1	-10%	1.73
Cc1nnc(CN2CCC[C@@](O)(CNC(=O)N3CCCCC3)CC2)s1	1%	-0.14
COCCn1c(=O)n([C@H]2CCCN(C(=O)Cc3c(C)noc3C)C2)c2ncccc21	-14%	1.87
CCC(CC)c1nnc(NC(=O)c2ccc(NC(=O)c3ccccc3)cc2)s1	3%	-0.41
COc1cncc(O[C@H]2CCCN(C(=O)Cn3cccn3)C2)n1	-5%	0.89
COCC[C@H](NC(=O)NC1(C)CCC1)C(C)C	-9%	0.92
CC[C@@H](c1ccccc1)N(C)Cc1ccc(-c2nc3c(c(=O)[nH]2)CNCC3)cc1	-5%	0.85
O=S(=O)(N1CCCCCC1)N1CCN(Cc2cc3c(cc2Br)OCCO3)CC1	7%	-0.84
CCNc1ccnc(N2CCc3nnc(Cc4cccnc4)n3CC2)n1	2%	-0.23
CC(C)OCCOC[C@@H](O)CN(C)Cc1cccc(Cl)c1	-2%	0.32
Cc1csc(CN(Cc2ccccc2)CC(C)(C)O)n1	-3%	0.36
N#C[C@@H](C(=O)C1CCC(NC(=O)C2CCCC2)CC1)c1ccccn1 (stereo partly specified)	-13%	1.84
Cc1c(C(=O)Nc2ccccc2)[n+]([O-])cn1-c1cc(C(=O)O)ccc1OC(C)C	-12%	1.85
Cc1nc(O)nc(C)c1CCC(=O)NCc1nc2c(C)cccc2[nH]1	-6%	0.79
CCCc1cc(N2CCN(C(=O)c3ccc(F)cc3)CC2)nc2nnc(C)n12	2%	-0.23
COc1cccc(CN2CCCN(c3cccc(NC(=O)CC(C)(C)C)c3)C2=O)c1	6%	-0.86
CC1CCC(C)(NC(=O)C2=NN(C)C(=O)CC2)CC1 (stereo unspecified)	-15%	2.39
CS(=O)(=O)C1(C(=O)N2CC(C3CC3)C2C2CC2)CCC1 (stereo unspecified)	-3%	0.39
CN(C)C(=O)c1cccc(-c2cccc3cnccc23)c1	-9%	1.25
CC[C@H](O)CN(CCO)Cc1cc(Br)ccc1F	-11%	1.78

SMILES	% Inhibition	Z score
CC(C)C(=O)NCCNC(=O)NCC1CC1	2%	-0.34
Cc1ccc(CN(CCN2CCOCC2)Cc2ccc(C(O)(c3cccc(F)c3)c3cccc(F)c3)o2)cc1	-12%	1.51
CC(C)C[C@@H]1NC(=O)CN(C(=O)c2cccc(C(F)(F)F)c2)CCNC(=O)[C@H](Cc2ccccc2)NC(=O)[C@H](C)N(C)C1=O ({Benzoyl(3-CF3)}-[N(2-Aminoethyl)Gly]L[NMeA]F; lactam 1-C)	-10%	1.25
O=C(Nc1cccc(OCC(F)F)n1)c1ccc2ncoc2c1	6%	-1.08
O=c1[nH]c2ccccc2c(=O)n1C[C@H]1CC[C@H](C(=O)NC[C@H]2CC[C@H](C(=O)O)CC2)CC1	-12%	1.77
O=C(O)CCNC(=O)N1CCC[C@]2(CCCN(Cc3ccccc3)C2)C1	-1%	0.13
CCNc1ncc(C(=O)NC[C@H](O)CN2CCOCC2)cc1Cl	2%	-0.24
COc1ccc(S(=O)(=O)N2CCOCC2)cc1C(=O)Nc1ccc2c(c1)OCCCO2	-9%	1.11
CCn1cc(-c2ccccc2)cc1C(=O)O	-19%	1.7
COc1nnc(N2C(=O)CN([C@@H](C)c3ccccc3)C2=O)s1	-14%	1.42
Cc1cc(C)c(NS2=NC(C(Cl)(Cl)Cl)=NC(C(Cl)(Cl)Cl)=N2)c(C)c1 (stereo unspecified)	2%	-0.37
Cc1nccn1CCCCNC(=O)c1ccc2c(c1)OCCO2	-2%	0.3
O=C(c1ccon1)N1CC[C@H]2[C@H](CCC(=O)N2CCCn2ccnc2)C1	-9%	1.78
Cc1cc(N2CCC[C@H]2c2c(C)nn(C)c2Cl)n2ncnc2n1	14%	-2.26
CCN(CC)/C(=N\Nc1cccc(Cl)c1)C(C)=O	-18%	2.11
O=C(C[C@H]1CCOC1)Nc1ccc(CNc2ccccc2)cc1	4%	-0.76
Cn1ccc([C@H]2CCCN(S(=O)(=O)c3ccc(F)c(-c4nnn[nH]4)c3)C2)n1	16%	-1.85
CN(Cc1nccs1)[C@@H](c1ccc(Cl)cc1)c1ncccn1	-12%	1.13
O[C@H]1CN(Cc2cnc(NCc3ccccc3)nc2)C[C@@H]1F	-10%	1.9
COc1ccc(NC(=O)c2csc(NC3CC3)n2)c(OC)c1	-5%	0.65
COc1ccc(-c2nccn3cc(C(=O)N4CCN(C5CCCCC5)CC4)nc23)cc1	8%	-1.35

SMILES	% Inhibition	Z score
CCn1ccc(C(=O)N2CCCn3nc(-c4nc5ccccc5[nH]4)cc3C2)n1	-11%	2.04
O=C(Nc1cccn2c(C3CCC3)nnc12)c1cnccn1	-8%	1.58
C[C@@H]1OCCO[C@@H]1C(=O)Nc1nc(-c2ccccc2Cl)nn1C	-6%	1.01
Cc1ccccc1CC(=O)N1C[C@H](C(=O)O)[C@@H](c2ccc3c(c2)OCO3)C1	-16%	1.76
CC(C)CCn1c(=O)c2c(ncn2Cc2ccccc2)n(-c2ccccc2Cl)c1=O	-8%	0.71
COc1ccc(-n2c(C)cc(C(=O)N3CC[C@H](C(=O)O)C3)c2C)cc1	-1%	0.2
CCOc1ccc2ccccc2c1[C@@H]1N=C(O)c2ccccc2N1	10%	-1.18
Cc1cc(CN(C)c2nc(C)ncc2C)ccn1	-7%	1.36
O=C(NCC1CCN(c2cccnc2)CC1)c1cncc(Br)c1	18%	-2.25
Cc1cc(CNC(=O)N[C@H](C(N)=O)C(C)C)cnc1C	-17%	1.52
COc1ccccc1-c1nc(NC[C@H]2CCCO2)nc2nn(Cc3ccccc3)c(N)c12	4%	-0.49
CS(=O)(=O)N1C[C@H]2CC[C@@H](C1)N(C(=O)COCc1ccccc1)C2	-3%	0.49
Cc1nsc(NC(=O)N2CCC(C(=O)N3CCCC3)CC2)n1	4%	-0.78
COC1(CC(=O)NCCc2c[nH]c3ccccc23)CCC1	-9%	1.13
Cc1cc(C(=O)N(C)CC2(C)CCOCC2)nn1C	0%	0.04
Cc1cccc(NC(=O)c2cc(S(=O)(=O)N3CCCCC3)ccc2Cl)n1	-10%	2.03
Cc1ccc(NC(=O)Cn2cnc3c(c2=O)CCCC3)c(Br)c1	-15%	1.87
CC1(C)CN(C(=O)Cc2cccnc2)C[C@]1(O)C1CC1	-3%	0.39
CC(=C(F)C(=O)N1CCCC[C@@H]1CO)C1CC1	-9%	1.41
COC(=O)N1CCC(NC2c3ccccc3CC2C)CC1 (stereo unspecified)	-13%	1.06
CC(NCc1nnc(-c2ccco2)o1)C(C)n1cccn1 (stereo unspecified)	-1%	0.21

SMILES	% Inhibition	Z score
Cc1noc2ncnc(Nc3ccc4c(c3)NC(=O)[C@H](C)O4)c12	-8%	0.86
Cc1cc(C(=O)NCCc2cncnc2)no1	-3%	0.32
Cc1cc(C(=O)NCc2cc(-c3ccco3)n(C)n2)no1	4%	-0.46
N#CCN[C@H](c1ccccc1OC(F)F)C(F)(F)F	-21%	3.12
Cc1ccc2c(c1)N(S(C)(=O)=O)CC[C@@H](C(=O)N1CCCCC1)O2	11%	-1.86
C[C@@H](CCCO)NC(=O)NCCc1ccc(F)cc1Cl	-17%	1.47
O=C(NCc1n[nH]c(=O)[nH]1)C(=O)Nc1ccc(Br)cc1Cl	-2%	0.31
O=C(NC1CC2CCC1O2)N1CC2C3CCC(O3)C2C1 (stereo unspecified)	11%	-1.59
FC1=CCCN(c2cnc3ccccc3n2)C1	9%	-1.07
CC(C)Cc1nc(CN(C)C(=O)NC[C@H]2CCN(C(C)(C)C)C2)no1	-15%	1.36
COc1cc([C@H]2CC(=O)Nc3c2cnn3C(C)(C)C)cc2c1OCCO2	-1%	0.07
C[C@H](NC(=O)Cc1c(F)cccc1F)c1nc(C(F)(F)F)no1	-3%	0.48
Cc1ccc(-c2nc3ccccc3c(=O)[nH]2)o1	-10%	1.81
C[C@H]1CS(=O)(=O)N(c2ccc(C(=O)N3CCCC3)cc2)C1=O	-16%	2.03
CCc1ccc(CNCC2(N(C)C)CCCC2)cc1	-18%	2.58
Cc1ccc(C2=NOC3(CCN(C(=O)c4cc(F)ccc4F)CC3)N2)cc1	-9%	1.15
CC(C)c1nc2ccc(C(=O)NCc3ccc(F)cc3)cc2o1	-20%	1.82
C[C@@H](Cc1ccc(Br)cc1F)NC(=O)c1c[nH]nn1	-1%	0.16
CN1C(=O)C(C)(C)c2cc(S(=O)(=O)N3CCC(C(=O)N[C@H]4CCCc5ccccc54)CC3)ccc21	-9%	0.85
O=C(Cn1c2c(c(=O)n(C3CCCCC3)c1=O)CCC2)NCCCN1CCOCC1	-15%	2.49
